PubChem BioAssay AID1460 (National Center for Advancing Translational Sciences (NCATS), 2008)
The campaign covered roughly 270,000 compounds. About 5,800 (2.1%) were called active. The inconclusive results got no clear call from the source; some entries with a clear call stand among them for comparison. Calls come from the whole dose curve; as a rule, active = well fitted inhibition curve with a large enough effect; inconclusive = small, poorly fitted or top-dose-only effect; inactive = flat fitted curve, though single readings scatter. A potency beside an inconclusive call is a rough fit, not a confirmed value.

The molecules below were run against Microtubule-associated protein tau (Homo sapiens) (UniProt P10636) (assay: qHTS for Inhibitors of Tau Fibril Formation, Thioflavin T Binding). Conditions: recombinant tau K18 P301L (four-repeat tau fragment), heparin-induced fibrillization, ThT fluorescence; series mostly up to 57.4 µM; activity, negative = inhibition: at the top concentration.
Method in brief: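 Tau K18 P301L fragment (15 uM unlabeled plus 0.24 uM Alexa 594-labeled) in 100 mM sodium acetate pH 7 with compound, fibrillization induced by 20 uM heparin for 6 hr at 37 C. Thioflavin T (30 uM) added, fluorescence read after 1 hr (ex 450, em 510 nm).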
% is set by controls: 0 for no effect and ±100 for the full control effect; potency is the fitted concentration of half-maximal effect; tags give direction and shape of the fitted curve.
Note: nearly all actives have a fitted effect of over 55% in size.

Sequence of UniProt P10636 (P10636 whole entry, looked up, the tested form may be a part): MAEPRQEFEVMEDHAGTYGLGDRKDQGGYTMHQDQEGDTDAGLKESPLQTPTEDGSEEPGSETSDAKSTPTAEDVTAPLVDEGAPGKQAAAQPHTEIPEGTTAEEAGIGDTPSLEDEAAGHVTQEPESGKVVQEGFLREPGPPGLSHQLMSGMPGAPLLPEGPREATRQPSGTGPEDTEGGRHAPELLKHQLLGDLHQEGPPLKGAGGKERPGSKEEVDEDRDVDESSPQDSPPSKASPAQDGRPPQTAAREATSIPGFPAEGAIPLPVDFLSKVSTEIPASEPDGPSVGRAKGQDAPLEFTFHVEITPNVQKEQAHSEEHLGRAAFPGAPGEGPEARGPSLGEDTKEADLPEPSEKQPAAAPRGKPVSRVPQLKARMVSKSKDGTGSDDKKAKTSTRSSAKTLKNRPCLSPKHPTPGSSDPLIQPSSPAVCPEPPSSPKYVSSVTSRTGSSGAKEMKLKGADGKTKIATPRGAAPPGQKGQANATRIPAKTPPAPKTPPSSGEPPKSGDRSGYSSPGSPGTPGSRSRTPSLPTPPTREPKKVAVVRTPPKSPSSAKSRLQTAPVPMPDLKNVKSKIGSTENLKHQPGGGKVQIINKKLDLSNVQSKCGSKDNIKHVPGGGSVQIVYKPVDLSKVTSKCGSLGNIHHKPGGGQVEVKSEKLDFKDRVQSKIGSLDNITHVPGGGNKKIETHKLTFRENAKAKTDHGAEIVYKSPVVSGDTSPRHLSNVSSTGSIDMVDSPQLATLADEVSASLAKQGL

Row | Structure (SMILES) | Potency | activity, negative = inhibition
1 | COc1ccc(CCNC(=O)c2ccc3c(c2)N=C(C)c2ccccc2S3)cc1OC | inconclusive: 44.7 µM [inhibitor, single point] | 
2 | Cn1c(NCc2c(O)ccc3ccccc23)nc2ccccc21 | inconclusive: 15.8 µM [inhibitor, partial curve] | 
3 | CCN(CC)CCNc1ncnc2c1[nH]c1ccc(OC)cc12 |  | inactive: -13.3%
4 | COc1ccc(/C=c2\s/c(=C/C(=O)c3ccc(C)cc3)[nH]c2=O)cc1OC | inconclusive: 7.94 µM [inhibitor, partial curve] | 
5 | CCc1nnc(NC(=O)C(=O)NCCOC(=O)c2ccccc2Cl)s1 | inconclusive: 25.1 µM [inhibitor, single point] | 
6 | COc1ccc(NC2CC(=O)N(CCc3ccccc3)C2=O)cc1 (stereo not given) | inconclusive: 22.4 µM [inhibitor, partial curve] | 
7 | Cc1c(Br)c(O)c(Br)c2sc(=O)oc12 | active: 11.2 µM | 
8 | Cc1ccc(C2c3sc(=O)[nH]c3SC3C(=O)NC(=O)C32)cc1 (stereo not given) | inconclusive: 15.8 µM [inhibitor, partial curve] | 
9 | Cc1ccccc1N=Cc1cccc(O)c1O | active: 7.94 µM | 
10 | Cn1nc(C(=O)Nc2sc3c(c2C#N)CCCC3)ccc1=O | inconclusive: 8.91 µM [inhibitor, partial curve] | 
11 | CC(C)OC(=O)C1=C(N)N2C(=O)CSC2=C(C(=O)OC(C)C)C1 |  | inactive: -14.8%
12 | COc1ccc2oc(-c3cccc(NC(=O)c4cc([N+](=O)[O-])ccc4N4CCOCC4)c3)nc2c1 | inconclusive: 1.78 µM [inhibitor, full curve, poor fit] | 
13 | CCOC(=O)C(C)Sc1nnc2cc(C)c3ccccc3n12 (stereo not given) |  | inactive: -1.61%
14 | CCCCOc1ccc(C(=O)NCc2ccco2)cc1 | inconclusive: 44.7 µM [inhibitor, single point] | 
15 | COc1cccc(NC(=O)CSc2ccc3nnc(-c4ccncc4)n3n2)c1 |  | inactive: -12.7%
16 | CCc1cccc2c1NC(=O)C2(O)CC(=O)c1cccs1 (stereo not given) |  | inactive: 1.38%
17 | CCOc1ccccc1NC(=O)CCS(=O)(=O)c1ccc2c(c1)oc(=O)n2C |  | inactive: -4.63%
18 | COc1ccccc1C(=O)Nc1ccc(C(=O)N2CCCC2)cc1 |  | inactive: -9.17%
19 | CC1(C)Cc2ccccc2C2=NNC(=O)C2=N1 | active: 15.8 µM | 
20 | COc1ccc2c(c1)c1ncn(CCc3ccccc3)c(=O)c1n2C | inconclusive: 39.8 µM [inhibitor, partial curve] | 
21 | C=CCn1c(SCc2csc(C)n2)nc2sc3c(c2c1=O)CCCC3 | inconclusive: 31.6 µM [inhibitor, partial curve] | 
22 | CN(CC(=O)Nc1ccc(F)cc1F)S(=O)(=O)c1cccc2nsnc12 |  | inactive: -8.78%
23 | COc1ccc(-c2noc(CSc3nnc(Cc4ccccc4)n3-c3ccc(F)cc3)n2)cc1 |  | inactive: -15.5%
24 | O=[N+]([O-])c1ccc(Nc2ccccc2)nc1 | inconclusive: 15.8 µM [inhibitor, partial curve] | 
25 | CCS(=O)(=O)NCc1ccc2[nH]c3c(c2c1)CCCC3 |  | inactive: -25.1%

Row | Structure (SMILES) | Potency | activity, negative = inhibition
26 | Cc1ccc(NC(=O)c2csc3c2CCCC3)cc1 | inconclusive: 14.1 µM [inhibitor, partial curve] | 
27 | COc1ccc(C(=O)Nc2nc3c(s2)Cc2c(Br)ccc(OC)c2-3)cc1OC | inconclusive: 4.47 µM [inhibitor, partial curve] | 
28 | COC(=O)C1=C(C)N(CCc2ccc(OC)c(OC)c2)C(=O)/C1=C\N(C)C | active: 14.1 µM | 
29 | CCc1ccc(NC(=O)CSc2nnc(CC)c(CC)n2)cc1 | inconclusive: 20 µM [inhibitor, partial curve] | 
30 | CC1=CC2=NC(=O)/C(=C\c3cccn3CCOc3ccccc3)C(=N)N2O1 | inconclusive: 20 µM [inhibitor, single point] | 
31 | Cc1c(Cc2ccccc2)sc(/N=C/c2ccc3ccccc3c2)c1C(N)=O |  | inactive: -16.2%
32 | COc1ccc2oc(=Nc3cc(F)ccc3F)c(C(N)=O)cc2c1 | inconclusive: 14.1 µM [inhibitor, partial curve] | 
33 | COc1ccc(Cl)cc1C(=O)CSc1nnnn1C1CCCCC1 |  | inactive: -15.2%
34 | CC(C)c1[nH]nc2c1C(c1ccc(OC(=O)c3ccco3)cc1)C(C#N)=C(N)O2 (stereo not given) |  | inactive: -19.2%
35 | CCn1c(SCC(=O)Nc2ccc(N3CCOCC3)cc2)nnc1-c1ccc(OC)cc1 | inconclusive: 31.6 µM [inhibitor, partial curve] | 
36 | COc1cc(/C=C/c2ccc3cccc(OC)c3n2)c(OC(C)=O)c([N+](=O)[O-])c1 | active: 2.82 µM | 
37 | Brc1ccc(-c2nn3c(-c4ccccn4)nnc3s2)o1 | inconclusive: 25.1 µM [inhibitor, single point] | 
38 | CCOc1ccc(CNC(=O)C2CCCN(c3nn4cc(-c5ccc(OC)cc5)nc4s3)C2)cc1 (stereo not given) | inconclusive: 6.31 µM [inhibitor, partial curve] | 
39 | Cc1ccccc1OCCNC(=O)/C=C/c1ccc([N+](=O)[O-])cc1 | inconclusive: 4.47 µM [inhibitor, partial curve] | 
40 | C/C(=N\Nc1ccccc1)c1c(O)cc(C)oc1=O | inconclusive: 28.2 µM [inhibitor, partial curve] | 
41 | Cc1ccc(NC(=O)C(C)S)cc1 (stereo not given) | inconclusive: 25.1 µM [inhibitor, single point] | 
42 | COc1ccc(CSc2ncnc3sccc23)cc1F | inconclusive: 20 µM [inhibitor, partial curve] | 
43 | O=C(CCCCCn1c(=S)[nH]c2ccc(N3CCOCC3)cc2c1=O)NC1CCN(Cc2ccccc2)CC1 | inconclusive: 25.1 µM [inhibitor, partial curve, poor fit] | 
44 | CCCc1cc2c(n1CCc1ccc(Cl)cc1)C(C)C1CN(C(=O)c3ccccc3)C(C)(C(=O)OC)C21 (stereo not given) | inconclusive: 39.8 µM [inhibitor, single point] | 
45 | O=C(CC1SC(=Nc2ccccc2)N(CCc2ccccn2)C1=O)Nc1ccc(F)cc1 (stereo not given) |  | inactive: 2.77%
46 | COc1ccc(NC(=O)c2oc3ccccc3c2C)c(OC)c1 | inconclusive: 2.82 µM [inhibitor, full curve] | 
47 | COc1ccc(NC(=O)c2sc(SC)nc2N)cc1 | inconclusive: 14.1 µM [inhibitor, partial curve] | 
48 | Cc1ccc(-n2nc(C(=O)N(C)c3ccc(C)c(C)c3)c3c4ccccc4n(C)c3c2=O)cc1 |  | inactive: -4.57%
49 | CCCCOP(=O)(c1ccc(N(C)C)cc1)C(O)c1cccnc1 (stereo not given) |  | inactive: -7.27%
50 | O=[N+]([O-])c1ccc(S(=O)(=O)N2CCn3cccc3C2c2ccc(Br)cc2)cc1 (stereo not given) | inconclusive: 39.8 µM [inhibitor, single point] | 

Row | Structure (SMILES) | Potency | activity, negative = inhibition
51 | O=C(/C=C/c1ccco1)NC(=S)Nc1ccccc1N1CCCC1 |  | inactive: 4.06%
52 | COCCCNC(=O)CCNS(=O)(=O)c1ccc(C)cc1 | inconclusive: 25.1 µM [inhibitor, partial curve] | 
53 | C=CCS/C(N)=N\N=C\c1cc(Br)cc([N+](=O)[O-])c1O | active: 12.6 µM | 
54 | COc1ccc(Nc2ncc3c(n2)CCN(Cc2sccc2C)C3)c(OC)c1 | inconclusive: 25.1 µM [inhibitor, single point] | 
55 | O=C(CNc1ccc(F)cc1)N/N=C1\CCCc2ccccc21 | inconclusive: 28.2 µM [inhibitor, partial curve] | 
56 | Cc1ccc(-n2ncc3c(NCCCN(C)C)ncnc32)cc1Cl |  | inactive: 0.856%
57 | Cc1nn(-c2ccccc2)c2nc(C3CC3)cc(C(=O)Nc3cccc(F)c3)c12 |  | inactive: 4.55%
58 | O=C(c1cccc(-c2nnc(-c3ccccc3)o2)c1)N1CCCCCC1 |  | inactive: -18.9%
59 | Cc1cc(C)nc(N/N=C/c2ccccc2OCc2ccccc2)n1 |  | inactive: -0.142%
60 | O=C(NC1CCCc2ccccc21)c1cc(S(=O)(=O)N2CCOCC2)ccc1F (stereo not given) |  | inactive: -4.01%
61 | COC(=O)CCC(=O)OC1(C)C(=O)C2=CN(C3CCCC3)C(c3ccc(OC)cc3)=CC2=C(Br)C1=O (stereo not given) | active: 15.8 µM | 
62 | COc1ccccc1C(=O)O/N=C(\N)c1ccc(Cl)cc1 | inconclusive: 0.199 µM [inhibitor, full curve] | 
63 | Cc1sc(/N=C/c2ccccc2O)c(C#N)c1C | inconclusive: 2.24 µM [inhibitor, full curve] | 
64 | CCC(=O)Nc1cccc(C(=O)OCc2cccc([N+](=O)[O-])c2)c1 | inconclusive: 31.6 µM [inhibitor, partial curve] | 
65 | CCOc1ccc(NC(=O)C(C)NS(=O)(=O)c2ccc(NC(C)=O)cc2)cc1 (stereo not given) | inconclusive: 15.8 µM [inhibitor, single point] | 
66 | COc1cc(C2c3c([nH]c(=O)[nH]c3=O)Nc3ccc4ccccc4c32)cc(OC)c1OC (stereo not given) |  | inactive: -16.2%
67 | COc1cc(/C=N/N2CCOCC2)ccc1OCc1ccccc1 | inconclusive: 15.8 µM [inhibitor, partial curve] | 
68 | COc1ccccc1Nc1nnc(SCC(=O)Nc2nc(-c3ccc(F)cc3)cs2)s1 | inconclusive: 3.16 µM [inhibitor, full curve] | 
69 | CCOC(=O)CSc1nc(-c2ccccc2)ns1 |  | inactive: -3.18%
70 | O=C(O)CCC(=O)NCc1ccc(F)cc1 |  | inactive: -9.15%
71 | CCOC(=O)c1cccc(NC(=O)CCc2c(C)nn(-c3ccc(N4CCCCC4)nn3)c2C)c1 | inconclusive: 10 µM [inhibitor, partial curve] | 
72 | COc1ccccc1NC(=O)c1ncn(-c2ccccc2)n1 | inconclusive: 17.8 µM [inhibitor, single point] | 
73 | O=C(Nc1ccc(Cl)c(Cl)c1)Nc1nnc(CC2=CCCCC2)s1 |  | inactive: 11%
74 | Cc1nn2c(=O)cc(COc3ccc(/C=C(\C#N)C(=O)Nc4ccccc4C)cc3)nc2s1 | inconclusive: 0.891 µM [inhibitor, full curve] | 
75 | COc1ccc(-c2nnn3c2nc(NCCc2ccc(OC)c(OC)c2)c2ccccc23)cc1 | inconclusive: 7.94 µM [inhibitor, partial curve] | 
